PubChem BioAssay AID686979 (National Center for Advancing Translational Sciences (NCATS), 2013)
Hit rate of the full screen: of about 420,000 compounds, about 50,000 (12%) were called active. Inconclusive means that the source gave no clear call. Such entries were picked first, then a sample of the others. Calls come from the whole dose curve; as a rule, active = well fitted inhibition curve with a large enough effect; inconclusive = small, poorly fitted or top-dose-only effect; inactive = flat fitted curve, though single readings scatter. No potency is given beside an inconclusive call; the fits are too rough.

Experiment: qHTS for Inhibitors of human tyrosyl-DNA phosphodiesterase 1 (TDP1): qHTS in cells in presence of CPT; note: nearly all actives have a fitted effect of over 55% in size
Details: chicken DT40 Tdp1-/-;hTDP1 cells + 20 nM CPT, ATP luminescence, 48 h; activity change, negative = growth inhibition: at 46.2 µM (top of the series) unless noted
Method in brief: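 Cell growth measured by CellTiter-Glo luminescence after a minimum 48 h, 37 C compound exposure with 20 nM CPT in Tdp1-knockout DT40 cells stably expressing hTDP1, seeded 400/well; qHTS titration format.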
% is set by controls: 0 for no effect and ±100 for the full control effect; potency is the fitted concentration of half-maximal effect; tags give direction and shape of the fitted curve.

| Compound | Potency | activity change, negative = growth inhibition |
| --- | --- | --- |
| CCCN(C(=O)c1cc2c(Cl)nc3ccccc3c2s1)c1cccc(C)c1 | active: 20.6 µM |  |
| CCOC(=O)C1=C(CSc2nc(CC)c(C)cc2C#N)OC(N)=C(C#N)C1c1ccc(OC)cc1 (centres undefined) | inconclusive [inhibitor, single point] |  |
| c1ccc(Cn2c(CNc3nc4ccccc4n3CCN3CCCCC3)nc3ccccc32)cc1 | inconclusive [inhibitor, single point] |  |
| CCCN(CCC)C(=O)Cn1c(=O)n(Cc2ccc(C(=O)NCCc3ccc(OC)c(OC)c3)cc2)c(=O)c2ccccc21 | inconclusive [inhibitor, full curve] |  |
| Cc1ccc(N2C(=O)C3CCC(C)(C2=O)C3(C)C)cc1 (centres undefined) |  | inactive: 2.76% |
| S=c1[nH]nc(CCCc2n[nH]c(=S)o2)o1 |  | inactive: 13.2% |
| Cc1ccc2c(c1)cc(CN(Cc1cccs1)C(=O)c1ccco1)c1nnnn12 | inconclusive [inhibitor, single point] |  |
| CCCCN(C(=O)c1ccc(-c2ccc(Cl)cc2)o1)c1c(N)n(CC(C)C)c(=O)[nH]c1=O | inconclusive [inhibitor, single point] |  |
| CCOc1cc(CNc2ccc(O)cc2)cc(Br)c1OCc1ccccc1 | active: 23.1 µM |  |
| COc1ccc(C(O)c2cnc(C)n2Cc2ccccc2)cc1 (centres undefined) | inconclusive [inhibitor, partial curve] |  |
| CCOC(=O)c1cnn(-c2ccccc2)c1-n1cccc1C(=O)C(=O)Nc1ccccc1C(F)(F)F | inconclusive [inhibitor, single point] |  |
| O=c1c(-c2ccccc2)nc2cnc(N3CCNCC3)nc2n1C1CC1 | inconclusive [inhibitor, single point] |  |
| Cc1ccc(N(Cc2ccccc2)C(=O)c2ccc(C)c(S(=O)(=O)N3CCOCC3)c2)cc1 | inconclusive [inhibitor, single point] |  |
| Cc1ccc(-n2c(SCC(=O)N/N=C/c3ccccc3OCC(=O)O)nc3ccccc3c2=O)cc1 |  | inactive: 10.7% |
| C[C@H]1CN([C@@H](C)CO)C(=O)c2cc(NC(=O)C3CCCCC3)ccc2O[C@H]1CN(C)C(=O)Nc1ccc2c(c1)OCO2 | inconclusive [inhibitor, single point] |  |
| COc1ccc(CNC(=O)c2ccc3c(c2)N(Cc2ccccc2)C(=O)c2ccccc2S3(=O)=O)cc1 |  | inconclusive: -32.2% [inhibitor] |
| O=C(C#Cc1ccccc1)NCc1ccccc1F | inconclusive [inhibitor, single point] |  |
| CCOc1ccc(C(=O)NC(C(=O)NCCc2ccc(OC(F)F)cc2)C(C)C)cc1 (centres undefined) |  | inactive: -7.1% |
| CCc1sc(C(=O)NCc2ccccc2)cc1C | active: 20.6 µM |  |
| NC(=O)CSc1nc2c(c(=O)n1-c1ccccc1)C1(CCCCC1)Cc1ccccc1-2 | inconclusive [inhibitor, single point] |  |
| CCOC(=O)N/N=C/c1ccc(N(CC)CC)cc1O | active: 8.2 µM |  |
| CCc1ccc2c(CN3CCOCC3)cc(=O)oc2c1 |  | inconclusive: -14.3% [inhibitor] |

| Compound | Potency | activity change, negative = growth inhibition |
| --- | --- | --- |
| NC(=O)c1cc2cc(Cl)ccc2o/c1=N/NC(=O)c1cccs1 | inconclusive [inhibitor, single point] |  |
| Cc1ccc(C)c(OCc2ccc(C(=O)Nc3ccc([N+](=O)[O-])cn3)o2)c1 | inconclusive [inhibitor, single point] |  |
| Cc1cc(N2CCN(c3ccccn3)CC2)n2c(nc3ccccc32)c1C#N | inconclusive [inhibitor, single point] |  |
| C(=C\c1ccccc1)/CN1CCN(C(c2nnnn2C2CCCCC2)C2CC2)CC1 (centres undefined) | inconclusive [inhibitor, single point] |  |
| COC(=O)c1ccc(-c2cccc3c2OC(CNC(=O)/C=C/c2ccc(OC)c(OC)c2)C3)nc1 (centres undefined) | inconclusive [inhibitor, partial curve, poor fit] |  |
| Cc1cc(C)n(-c2ccc(C(=O)OCC(=O)NCc3ccc(F)cc3)cc2)n1 |  | inactive: 12.7% |
| CCOc1ccc(S(=O)(=O)N2CCC(C(N)=O)CC2)c2ccccc12 | inconclusive [inhibitor, single point] |  |
| O=C(NC1CCCCCC1)c1cccnc1Sc1ccccc1 |  | inactive: -8.57% |
| COc1ccc(OC)c(NC(=O)c2csnn2)c1 | inconclusive [inhibitor, single point] |  |
| CCOC(=O)N1CCC(NS(=O)(=O)c2ccc(C)cc2)CC1 |  | inactive: -26% |
| C=C(C)c1cccc(C(C)(C)NC(=O)Nc2ccccc2OCC)c1 |  | inconclusive: -30% [inhibitor] |
| CC(C)c1ccc(NC(=O)c2ccc(NS(C)(=O)=O)cc2)cc1 | active: 2.91 µM |  |
| Cc1nn(Cc2ccccc2Cl)c(C)c1NC(=O)c1noc2c1CCCCC2 | inconclusive [inhibitor, single point] |  |
| COc1cccc2sc(N3CCN(C(=O)C4COc5ccccc5O4)CC3)nc12 (centres undefined) | inconclusive [inhibitor, partial curve, poor fit] |  |
| O=C(Nc1nnc(S(=O)(=O)N2CCCc3ccccc32)s1)c1ccccc1Br | inconclusive [inhibitor, single point] |  |
| COc1ccc(C(=O)NCC(c2ccccc2)c2ccccc2)cc1S(=O)(=O)N1CCOCC1 | inconclusive [inhibitor, single point] |  |
| COc1ccc(-c2ccc(CN3C(C(C)C)C(=O)N(Cc4cn(Cc5ccco5)nn4)CCS3(=O)=O)cc2)cc1OC (centres undefined) | inconclusive [inhibitor, single point] |  |
| Cc1ccc2occ(CC(=O)Nc3nnc(C(C)C)s3)c2c1 |  | inactive: 11.1% |
| COc1ccc(S(=O)(=O)Nc2ccc3c(c2)N(C(C)=O)CCC3)cc1 | active: 18.4 µM |  |
| Cc1ccc(C(=O)OCC(=O)Nc2ccc(N3CCOCC3)cc2)cc1 |  | inactive: 3.2% |
| Cc1ccc(OCc2ccccc2Br)c([N+](=O)[O-])n1 |  | inactive: -1.19% |
| Cc1ccc(CNC(=O)CCCCn2c(=O)c3ccccc3n(Cc3ccc(Cl)cc3)c2=O)cc1 |  | inactive: -4.68% |
